Results on two molecules are retold here after publication PMC4807998.

Experiment [1] has as its target T1, APPL1 (endogenous) (human (endogenous in PC-3U)) (UniProt Q9UKG1).
T1 sequence: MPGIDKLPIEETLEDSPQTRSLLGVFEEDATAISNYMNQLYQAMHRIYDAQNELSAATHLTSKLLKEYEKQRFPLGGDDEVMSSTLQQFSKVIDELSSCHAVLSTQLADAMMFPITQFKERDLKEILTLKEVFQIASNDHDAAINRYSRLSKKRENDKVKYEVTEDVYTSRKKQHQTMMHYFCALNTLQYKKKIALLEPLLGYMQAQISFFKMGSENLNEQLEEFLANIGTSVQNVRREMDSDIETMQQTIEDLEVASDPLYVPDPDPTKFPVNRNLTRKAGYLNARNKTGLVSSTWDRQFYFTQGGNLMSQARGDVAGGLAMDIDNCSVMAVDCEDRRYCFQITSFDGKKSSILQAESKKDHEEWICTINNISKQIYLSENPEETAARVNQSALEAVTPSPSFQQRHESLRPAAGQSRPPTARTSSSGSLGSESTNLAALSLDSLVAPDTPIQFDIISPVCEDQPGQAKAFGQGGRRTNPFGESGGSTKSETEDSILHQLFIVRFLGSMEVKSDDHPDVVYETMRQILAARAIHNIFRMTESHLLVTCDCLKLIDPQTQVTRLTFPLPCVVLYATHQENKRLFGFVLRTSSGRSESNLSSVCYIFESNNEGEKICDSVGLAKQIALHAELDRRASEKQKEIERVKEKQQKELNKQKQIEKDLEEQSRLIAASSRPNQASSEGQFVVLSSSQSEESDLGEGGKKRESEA
The experiment is described as follows: proximity ligation; in situ PLA (Duolink) on fixed, permeabilised PC-3U cells treated or not with TGFβ for 30 min; endogenous proteins; immunofluorescence and brightfield.

Experiment [2] concerns the target T1, APPL1 (endogenous) (human (endogenous in PC-3U)). The experiment is described as follows: co-IP; PC-3U whole-cell lysates, IP with APPL1 antibody, blot for PKCζ or β-tubulin; endogenous proteins; cells with or without TGFβ, control or TRAF6 siRNA.
Experiment [3] shares this target. Put plainly: co-IP; PC-3U whole-cell lysates of cells with TRAF6 knocked down by siRNA, IP with APPL1 antibody, blot for PKCζ.
Experiment [4] has the same target. The description is as above. The source holds these as a separate data set.
Experiment [5] addresses T2, TGFβ type I receptor (TβRI), endogenous, full length (human (endogenous in PC-3U)) (UniProt P36897).
T2 sequence: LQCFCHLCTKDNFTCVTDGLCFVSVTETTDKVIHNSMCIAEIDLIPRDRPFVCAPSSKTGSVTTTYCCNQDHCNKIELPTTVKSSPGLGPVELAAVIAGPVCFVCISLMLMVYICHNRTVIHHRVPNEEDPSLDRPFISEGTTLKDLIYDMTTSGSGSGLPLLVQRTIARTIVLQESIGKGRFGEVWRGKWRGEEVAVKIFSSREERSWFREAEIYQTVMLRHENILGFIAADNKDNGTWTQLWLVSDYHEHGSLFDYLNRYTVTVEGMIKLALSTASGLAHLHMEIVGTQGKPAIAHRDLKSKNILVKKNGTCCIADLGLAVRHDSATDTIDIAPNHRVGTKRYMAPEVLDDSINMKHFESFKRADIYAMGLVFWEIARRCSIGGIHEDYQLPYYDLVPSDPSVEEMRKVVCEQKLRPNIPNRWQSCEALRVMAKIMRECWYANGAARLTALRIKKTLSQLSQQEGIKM
Put plainly: proximity ligation; in situ PLA (Duolink) on PC-3U cells depleted of TRAF6 by siRNA; endogenous APPL1 and TβRI.

For experiment [6], the target named is T2, TGFβ type I receptor (TβRI), endogenous, full length (human (endogenous in PC-3U)). The experiment is described as follows: proximity ligation; brightfield in situ PLA on sections of prostate cancer tissue of patients; endogenous APPL1 and TβRI.
The target is the same in experiment [7]. The experiment is described as follows: proximity ligation; in situ PLA (Duolink) on fixed, permeabilised PC-3U cells treated or not with TGFβ for 30 min; endogenous proteins; immunofluorescence and brightfield.
Experiment [8] shares this target. The experiment is described as follows: co-IP; PC-3U whole-cell lysates, IP with TβRI antibody V22, blot for APPL1; endogenous proteins; cells with or without TGFβ, LY294002, wortmannin or SB 505124.

Results are given in words; binding and its absence hold for the method and conditions named. In cells and extracts the contact can be indirect. Some binding calls cover weakened binding; strength is not graded here.

B1: PKCζ (endogenous) (enzyme, UniProt Q05513 1-592)
chain: MPSRTGPKMEGSGGRVRLKAHYGGDIFITSVDAATTFEELCEEVRDMCRLHQQHPLTLKWVDSEGDPCTVSSQMELEEAFRLARQCRDEGLIIHVFPSTPEQPGLPCPGEDKSIYRRGARRWRKLYRANGHLFQAKRFNRRAYCGQCSERIWGLARQGYRCINCKLLVHKRCHGLVPLTCRKHMDSVMPSQEPPVDDKNEDADLPSEETDGIAYISSSRKHDSIKDDSEDLKPVIDGMDGIKISQGLGLQDFDLIRVIGRGSYAKVLLVRLKKNDQIYAMKVVKKELVHDDEDIDWVQTEKHVFEQASSNPFLVGLHSCFQTTSRLFLVIEYVNGGDLMFHMQRQRKLPEEHARFYAAEICIALNFLHERGIIYRDLKLDNVLLDADGHIKLTDYGMCKEGLGPGDTTSTFCGTPNYIAPEILRGEEYGFSVDWWALGVLMFEMMAGRSPFDIITDNPDMNTEDYLFQVILEKPIRIPRFLSVKASHVLKGFLNKDPKERLGCRPQTGFSDIKSHAFFRSIDWDLLEKKQALPPFQPQITDDYGLDNFDTQFTSEPVQLTPDDEDAIKRIDQSEFEGFEYINPLLLSTEESV
For B1, the binding result is on record as “binds” in experiment [1], “binds” in experiment [2], “binds” in experiment [3] and “no binding (condition: knockdown of TRAF6 by siRNA)” in experiment [4].

B2: APPL1 (endogenous) (protein, UniProt Q9UKG1 1-709)
chain: MPGIDKLPIEETLEDSPQTRSLLGVFEEDATAISNYMNQLYQAMHRIYDAQNELSAATHLTSKLLKEYEKQRFPLGGDDEVMSSTLQQFSKVIDELSSCHAVLSTQLADAMMFPITQFKERDLKEILTLKEVFQIASNDHDAAINRYSRLSKKRENDKVKYEVTEDVYTSRKKQHQTMMHYFCALNTLQYKKKIALLEPLLGYMQAQISFFKMGSENLNEQLEEFLANIGTSVQNVRREMDSDIETMQQTIEDLEVASDPLYVPDPDPTKFPVNRNLTRKAGYLNARNKTGLVSSTWDRQFYFTQGGNLMSQARGDVAGGLAMDIDNCSVMAVDCEDRRYCFQITSFDGKKSSILQAESKKDHEEWICTINNISKQIYLSENPEETAARVNQSALEAVTPSPSFQQRHESLRPAAGQSRPPTARTSSSGSLGSESTNLAALSLDSLVAPDTPIQFDIISPVCEDQPGQAKAFGQGGRRTNPFGESGGSTKSETEDSILHQLFIVRFLGSMEVKSDDHPDVVYETMRQILAARAIHNIFRMTESHLLVTCDCLKLIDPQTQVTRLTFPLPCVVLYATHQENKRLFGFVLRTSSGRSESNLSSVCYIFESNNEGEKICDSVGLAKQIALHAELDRRASEKQKEIERVKEKQQKELNKQKQIEKDLEEQSRLIAASSRPNQASSEGQFVVLSSSQSEESDLGEGGKKRESEA
Turning to B2, the binding entry in experiment [5] is “no binding (condition: cells depleted of TRAF6 by siRNA)”; in experiment [6], “binds”; in experiment [7], “binds”; in experiment [8], “binds”.
